The labels stand for the following.
B1: CPEB3 Ribozyme (parent)
chain: UAACAGGGGGCCACAGCAGAAGCGUUCACGUCGCAGCCCCUGUCAGAUUCUGGUGAAUCUGCGAAUUCUGCUGUAUAUCUC

Read counts are not given, so values of variants with three or more changes are uncertain.

The values that follow come from the RNAGym collection of RNA variant scans (doi:10.1093/nar/gkz1192).

The variants in the series derive from B1. The series can be described thus: self-cleavage, relative activity (ratio to wild type); higher = more cleavage; in vitro, sequencing. The gist of the method:
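After error-prone PCR and barcoding, CPEB3 ribozyme mutant libraries were transcribed with T7 RNA polymerase at 37°C for 5 hours, then given 15 min with DNase I before an EDTA stop, and they cleaved during both steps. Reverse transcription with template switching preceded Illumina sequencing. Relative activity divides a variant's cleaved/total read fraction by the unmutated ribozyme's. At least 5 reads were required per variant, and three batches were averaged.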
Take UAACAGGGGGCCACAGUAGAAGCGUUCACGUCGCAGCCCCUGUCGGAUACUGGUGAAUCUGCGAAUUCUGCUGUAUAUCUC [C17U A45G U49A]: the self-cleavage came out at 0.11.
With UAACAGGGGGCCACAGGAGAAGCGUUCACGUCGCGGCCCCUGUCAGACUCCGGUGAGUCUGCGAAUUCUGCUGUAUACCUC [C17G A35G U48C U51C A57G U78C], the self-cleavage is 1.33.
Consider UAACAGGGGGCCACAGUAGGAGCGCUCACGUCGCAGCCCCAGUCAGAUUCUGGUGAAUCUGCGAAUACUGCUGUAUAUCUC [C17U A20G U25C U41A U67A], for which the self-cleavage amounted to 0.19.
As for UAACAGGGGGCCACAGGAGAAGCGUUCACGUCUCAGCCCCUGCCAGAUUCUGGUGAAACUGCGAAUUCUGCUGAAUAUCUC [C17G G33U U43C U58A U74A], the self-cleavage is 0.1.
Consider UAACAGGGGGCCACAGUUGCAGCGUCCACGGCGCAGCCCCUGUCAGAUCCUGGUAAAUCUGCGAAUUCUGCUGUAUAUCUC [C17U A18U A20C U26C U31G U49C G55A], for which the self-cleavage was found to be 0.09.
As to UAACAGGGGGCCACAGGAGAAGCGUCCACGUCGCAGCCCCUGUCAGAUUCUGGUGAAUCUGCGAAUUCAACUGAAUAUCUC [C17G U26C U69A G70A U74A], the self-cleavage amounted to 0.01.
With UAACAGGGGGCCACAGGAGAAGCGUUCACGUCGCAGCCCCUGUCAGAUUUUGGUGAAUCUGCGAAUUCUGCUGAAUAUCUC [C17G C50U U74A], the self-cleavage stood at 0.67.
Take UAACAGGGGGCCACAGUAGAAGCGUUCGCGUCGCUGCCCCUGUCAGAUUCUGGUGAAUCAGCGAAUUCUGCUGUUUAUCUC [C17U A28G A35U U60A A75U]: the self-cleavage was found to be 0.1.
As for UAACAGGGGGCCACAGGAGAAGCGUUCACGUCGCUGCCACUGUCAGAUUCUGGUGAGUCUGCGAAUUCUGCCGUAUAUCUC [C17G A35U C39A A57G U72C], the self-cleavage stood at 0.07.
UAACAGGGGGCCACAGGAGAAGGGUUCACGUCGCAGCCCCUGCCAGAUUCUGGUGAAUCUGCGAGUUCUGCUGUAUAUCCC [C17G C23G U43C A65G U80C]: the self-cleavage is 0.11.
For UAACAGGGGGCCACAGGAGAAGCGUUCACGACGCACCCCCUGUCAGAUUCUGGUGAAUCUGCGAAUUCCGCAGUAUACCAC [C17G U31A G36C U69C U72A U78C U80A], the self-cleavage came out at 0.07.
As for UAACAGGGGGCCACAGUGGAAGCGUUCACGUCGCAGCCCCUGUCAGAUUCUGGUGAAUCUGCGAGUUCUGCUGUAUGUCUC [C17U A18G A65G A77G], the self-cleavage came out at 0.19.
For UAACAGGGGGCCACAGGAGAAGCGCUCACGUCGCAGCCCCUGUCAGACUCUGGUAAAUCUGCGAAUUCUGCUGUAUAUCUC [C17G U25C U48C G55A], the self-cleavage came out at 0.09.
For UAACAGGGGGCCACAGUAGAAGCGUUCACGUCGCAGCCACUGUCAGAUUCUGGUGACUCUGCGAAUUCUGCUGUAUGUCUC [C17U C39A A57C A77G], the self-cleavage was determined as 0.14.
As for UAACAGGGGGCCACAGUAGAAGCGUUCACGUCGCAGCCCCUGUCUGAUUCUGGUGAAUCCGCGAAUUCUGCUGUAUACCUC [C17U A45U U60C U78C], the figure is 0.29; as for UAACAGGGGGCCACAGUAGAAGCGUUCACGUCGCUGCACCUGUCAGAUUCUGGUGAAUCUGCGAAUUCUGCUGUAUAUCUC [C17U A35U C38A], 0.25; as for UAACAGGGGGCCACAGGAGAAGCGUUCUCGUCGCAGCCCUUGUCAGAUUCUGGUGAAUCUGCGAAUUAUGCUGCAUAUCUC [C17G A28U C40U C68A U74C], 0.18.
UAACAGGGGGCCACAGGAGAAGCGUUCACGUUGCAGCCCCUGUCAGAUUCUGGUGAAUCUGCGAAUUCUGCUGUAAAUCUC [C17G C32U U76A]: the self-cleavage was determined as 0.04.
In the case of UAACAGGGGGCCACAGUAGUAGCGUUCACGUCGCAGCCCCUGUCUGAUCCUGGUGAAUCUGCGAAUUCUGCUGUAUAUCUC [C17U A20U A45U U49C], the self-cleavage was found to be 0.14.
With UAACAGGGGGCCACAGUAGAAGCGUUCACGUCGCAGCUCCUGUCAGAUUCUGGUGAAUCUGCGGAUACUGCUGUAUAUCCC [C17U C38U A64G U67A U80C] the figure was 0.05; with UAACAGGGGGCCACAGUAGAAGCGUUCUCGUCGCAGCCCCAGUCAGGUUCUGGUGAAUCUGCAGAUUCUGCCGUAUAUCUC [C17U A28U U41A A47G G63A A64G U72C], 0.05.
With UAACAGGGGGCCACAGUAGGAGCGUUCACGUCGCAGCCCCUGUCAGAUUCUGGUGAAACUGCGAAUCCUGCUGUAUAUCUC [C17U A20G U58A U67C], the self-cleavage stood at 0.15.
For the variant UAACAGGGGGCCACAGUAGAAGCGUUCUCGUCGCAGCCCCCGUCAGAUUCUGGUGAAACUGCGAAUUCUGCUGUAUAUCUC [C17U A28U U41C U58A], the self-cleavage was 0.16.
As to UAACAGGGGGCCACAGGAGAAGCGCUCACGUCGCAGCCCCUGUCAGAUUCUGGUAAAUAUGCGAAUUCUGCUGUAAAUCUC [C17G U25C G55A C59A U76A], the self-cleavage was 0.07.
In the case of UAACAGGGGGCCACAGUAGACGCGUUCAUGUCGCAGCCCCUGUCAGAUUCUGGCGAAUCUGCGAAUUCUGCUGUAUAUCUC [C17U A21C C29U U54C], the self-cleavage is 0.18.
For UAACAGGGGGCCACAGUAGAAGCGUUCACGUCGCGGCCCCUGUCAGGUUCUGGUGAAUCUGCGAAUUCUGCUGUAUAUCUC [C17U A35G A47G], the self-cleavage is 0.93.
Consider UAACAGGGGGCCACAGUAGGAGCGUUCACGUCGCAGCCCCUGUCAGGUUCUGGUGAAUCUGCGAAUACUGCUGCAUAUCAC [C17U A20G A47G U67A U74C U80A], for which the self-cleavage amounted to 0.2.
Turning to UAACAGGGGGCCACAGUAGAAGCGUUCACGUCGCAGCCCCUGUCGGAUUCUGGUAAAUCUGCGAAUUCUGCUGUAUAUCUC [C17U A45G G55A], the self-cleavage is 0.16.
For the variant UAACAGGGGGCCACAGUAGAGGCGUUCACGUCGCAGCCCCUGUCAGAUUCUGGUGAACCUGCGAAUUCUGCUGUAUAUCUC [C17U A21G U58C], the self-cleavage stood at 0.19.
Turning to UAACAGGGGGCCACAGUAGAAGCGUUCACGUCGCAGCCCCUGUCAGGCUCUGGUGAAUCUGCGAAUUCUGCUGCAUAUCUC [C17U A47G U48C U74C], the self-cleavage worked out at 0.22.
Turning to UAACAGGGGGCCACAGUAGAAGCGUUCACGUCGCGGCCCCAGUCAGAUACUGGUGAAUCUGCGAAUCCUGCUGUAUAUCUC [C17U A35G U41A U49A U67C], the self-cleavage stood at 0.09.
With UAACAGGGGGCCACAGUAGUAGCGUUCACGUCGCAGCCCCUGUCAGAUUCUGGUGUAUCCGCGAAUUCUGCAGUAUAUCUC [C17U A20U A56U U60C U72A] the figure was 0.11; with UAACAGGGGGCCACAGUAGAAGCGUUCACGUUGCAGCCCCUGUCAGAUUCUGGUGAAUCUGCGAGUUCUACUGUAUAUCUC [C17U C32U A65G G70A], 0.09; with UAACAGGGGGCCACAGGAGAAGCGUUCACGUCGCAGCCCCUGUCAGAUUCUGGUGAAUCUGCGAAUUCUGCAGUAUAUCCC [C17G U72A U80C], 0.51.
